We go through one molecule from patent US20260258125A1.

This assay deals with antigen of the anti-CEACAM5/6 antibodies on HPAC cells. As to the kind of experiment: cell-based or functional assay.

B1: PR303561 (Tusamitamab) (antibody, human IgG1, kappa)
heavy: EVQLQESGPGLVKPGGSLSLSCAASGFVFSSYDMSWVRQTPERGLEWVAYISSGGGITYAPSTVKGRFTVSRDNAKNTLYLQMNSLTSEDTAVYYCAAHYFGSSGPFAYWGQGTLVTVSS[letters of human IgG1 constant region omitted]
light: DIQMTQSPASLSASVGDRVTITCRASENIFSYLAWYQQKPGKSPKLLVYNTRTLAEGVPSRFSGSGSGTDFSLTISSLQPEDFATYYCQHHYGTPFTFGSGTKLEIKRTVAAPSVFIFPPSDEQLKSGTASVVCLLNNFYPREAKVQWKVDNALQSGNSQESVTEQDSKDSTYSLSSTLTLSKADYEKHKVYACEVTHQGLSSPVTKSFNRGEC
Regarding B1, the Internalization of pHAb-dye-labelled antibody, MFI (37° C.-4° C.)/DAR was found to be 91000.
